Among all 150,000 compounds or so, about 540 (0.36%) showed an effect of 50% or more. Some of the results follow.

This assay concerns Plasmodium falciparum. Briefly: Primary screen in NF54 nanoGlo assay, in single point, at 2uM, 72h; a lower Z score goes with more inhibition. Format: functional, Erythrocyte. Conditions: timepoint 72 hour.
Consider `CC(C)[C@H](CNC(=O)N1CCC(OCc2cccnc2)CC1)N1CCCC1`, for which the % Inhibition – broadly, the drop in the measured response relative to a control, in per cent – is given as -5% and the Z score was 0.8.
For `COC[C@H](Nc1cc(C(C)C)nc(C)n1)c1ccccn1` the same measures were -13% and 1.59.
In the same order, the values of `O=C(NC1C2C3CCC(C3)C12)N1CCN(C(=O)c2ccccc2)CC1` (centres undefined) are -5% and 0.63.
Turning to `O=C(NC[C@]1(O)CCCc2occc21)c1cccc(F)c1`, the “% Inhibition” value is 19% and the Z score was -2.42.
Take `COc1cc(-c2noc(C(C)(C)C)n2)ccc1OCc1ccccc1F`: the “% Inhibition” value is listed as -8% and the Z score worked out at 1.3.
For `CCc1nc(C)sc1CN1CCC[C@H](C(=O)Cc2ccccc2)C1`, the “% Inhibition” value is recorded as -10% and the Z score worked out at 1.51.
Consider `CC(C)(C)OC(=O)NC1CCCC(C(=O)N2CCC3(CCC3)C2)C1` (centres undefined), for which the “% Inhibition” value came out at 10% and the Z score is recorded as -1.6.
For `CCN(Cc1cc(C)on1)C1CCCC1` the same measures were 5% and -0.84.
For `Cc1ccc(-c2ccnc(-n3ncc(C(=O)NCCN4CCOCC4)c3C3CC3)n2)o1` the same measures were -15% and 2.06.
On to `Cc1noc(C)c1N(C)S(=O)(=O)c1ccc(F)c2ncccc12`, for which the “% Inhibition” value is on record as -5% and the Z score is listed as 1.14.
For `C=CCOCC(O)CN(Cc1c(-c2ccccc2)noc1N1CCCCC1C)CC1CCCO1` (centres undefined) the same measures were 30% and -0.88.
As for `CC(C)CN1CC(=O)N(Cc2cc[nH]n2)C1=O`, the “% Inhibition” value is -2% and the Z score came out at 0.19.
For `O=C(OCc1ccccc1)N1CCC[C@@](O)(CN2CCOCC2)C1` the same measures were -4% and 0.45.
On to `CC1CN(C(=O)c2cn(C3CCS(=O)(=O)C3)nc2C(C)C)CC(C)N1` (centres undefined), for which the “% Inhibition” value stood at 3% and the Z score was -0.46.
For `O=C(NCCCc1nccs1)[C@H]1CC12CCCCC2` the same measures were 9% and -1.65.
With `COCCOc1cc2cc(c1)C(=O)NCCNC(=O)N[C@H]1CCN(Cc3nc(C(C)C)cs3)C[C@@H]1OCc1cccc(c1)O2`, the “% Inhibition” value came out at 17% and the Z score is on record as -3.22.
`Cc1ccc(-c2nc(CC(=O)NC[C@H](C)CN3CCCC3)cs2)o1`: the “% Inhibition” value is on record as -15% and the Z score amounted to 2.13.
In the same order, the values of `Cc1ccccc1OCC(=O)N(CCn1ccc(C(F)(F)F)n1)C1CCCC1` are -6% and 1.21.
For `Cc1c(C(=O)N2CC(C)CC(C)C2)c(C(F)(F)F)nn1C1CCN(C)CC1` (centres undefined) the same measures were -10% and 1.27.
Consider `CC(C)CC(C)OC(=O)CC(C)NC(=O)C1CCCC1` (centres undefined), for which the “% Inhibition” value was -14% and the Z score is on record as 1.38.
In the same order, the values of `CCn1cc(C#N)c(=O)n(CC(=O)N(Cc2ccccc2)[C@@H](C)C2CC2)c1=O` are -1% and 0.24.
As for `O=C(c1nnn2c1CO[C@H](c1ccccc1)C2)N1CCN(c2ccccn2)CC1`, the “% Inhibition” value is listed as -11% and the Z score came out at 1.54.
In the same order, the values of `Cc1nn(C)c2c(=O)n(CC(=O)NCc3ccccc3C(F)(F)F)ccc12` are -20% and 1.94.
For `COc1ccc2cc1Oc1cccc(c1)CO[C@H]1CCN(C(=O)CN3CCN(C)C3=O)C[C@H]1NC(=O)CC2` the same measures were -12% and 2.21.
In the same order, the values of `COC(=O)c1cnc2nc(-c3ccccc3)nn2c1-c1cnc(N2CCCCC2)nc1C` are 6% and -0.78.
On to `Cn1ccnc1-c1nccn1CCCc1cccnc1`, for which the “% Inhibition” value is recorded as -6% and the Z score is listed as 0.8.
In the same order, the values of `Cc1noc(C)c1CNC(=O)c1[nH]nc2c1CCC2` are -9% and 0.96.
For `C[C@@H]1CN(C[C@@H]2CN(c3ncnc4[nH]ccc34)C[C@@H]2CO)C[C@H](C)O1` the same measures were -3% and 0.45.
For `Cc1cnn(CCC(=O)N(C)Cc2c[nH]nc2C)c1` the same measures were -11% and 1.64.
With `CC(C)(C)[C@@H](O)CNc1ccc(Cl)cc1C#N`, the “% Inhibition” value was 7% and the Z score is given as -0.87.
In the same order, the values of `CCCn1ncc(C(=O)NCCc2nc(C3CC3)no2)c1C` are -9% and 1.55.
In the same order, the values of `Cc1ncc(C)c(NCC2(CO)CCCC2)n1` are 2% and -0.31.
For `CCCCOc1ccc(Br)cc1C(=O)NC` the same measures were -11% and 1.02.
On to `O=S(=O)(c1ccc(-c2noc(/C=C/c3ccccc3Cl)n2)cc1)N1CCCCC1`, for which the “% Inhibition” value is reported as 2% and the Z score was -0.4.
For `Cc1cc(Cn2cc(F)ccc2=O)no1` the same measures were -2% and 0.28.
For `CN(C(=O)c1cccc2c1OCC2(C)C)[C@H]1CCCc2c1cnn2C` the same measures were -5% and 0.64.
For `CN1CCN(C[C@@H]2CN(C(=O)c3cc4c(Cl)cccc4[nH]3)C[C@@H]2CO)CC1` the same measures were -3% and 0.6.
For the compound `O=C(Nc1ccc(N2CCOCC2)cc1)C1CCN(S(=O)(=O)c2ccc(-c3ccn[nH]3)o2)CC1`, the “% Inhibition” value is -18% and the Z score is recorded as 2.9.
In the same order, the values of `O=C(NCc1ccc(C2CC2)nc1)Nc1cccs1` are 21% and -2.65.
In the same order, the values of `Cc1nc(-c2ccccc2NS(=O)(=O)C2CC2)cs1` are -9% and 0.99.
`Cc1ncc(C(=O)N2C[C@H]3CC[C@@H](C2)N(Cc2ccccn2)C3)c(C)n1`: the “% Inhibition” value is -6% and the Z score is 0.75.
In the same order, the values of `OC[C@@]1(CCOc2ccccc2)CCCN(c2nnnn2-c2ccccc2)C1` are 14% and -1.84.

(Values after ChEMBL document CHEMBL4888484, “Replenishing the malaria drug discovery pipeline: Screening and hit evaluation of the MMV Hit Generation Library 1 (HGL1) against asexual blood stage Plasmodium falciparum ,using a nano luciferase reporter read-out” (2022).)
